The values below come from PubChem BioAssay AID485344 (National Center for Advancing Translational Sciences (NCATS), 2010).

SMILES strings stand for the structures. The campaign covered roughly 340,000 compounds. About 6,900 (2%) were called active. No stated cut-off is given here; in the data, active means inhibition above about 30%; inactive means below that, where a call was filed. The list shows a part of the results, in another mix than the full data. Where no call is shown, the source filed none.

This experiment has as its target D(2) dopamine receptor (Homo sapiens) (UniProt P14416). Kind of experiment: HTS Assay for Allosteric Antagonists of the Human D2 Dopamine Receptor: Primary Screen for Antagonists. Further: 0% is about no effect. The settings on record: HEK293 TREx D2 cells, calcium flux, dopamine EC80; at 10 µM; stronger effect = higher value. Summed up: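 Cells plated overnight at 30 C with tetracycline; no-wash calcium dye, 30–90 min RT; 10 s baseline; compound pinned; 180 s read; EC80 dopamine added; another 180 s read.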
Chain of UniProt P14416 (P14416 whole entry, looked up): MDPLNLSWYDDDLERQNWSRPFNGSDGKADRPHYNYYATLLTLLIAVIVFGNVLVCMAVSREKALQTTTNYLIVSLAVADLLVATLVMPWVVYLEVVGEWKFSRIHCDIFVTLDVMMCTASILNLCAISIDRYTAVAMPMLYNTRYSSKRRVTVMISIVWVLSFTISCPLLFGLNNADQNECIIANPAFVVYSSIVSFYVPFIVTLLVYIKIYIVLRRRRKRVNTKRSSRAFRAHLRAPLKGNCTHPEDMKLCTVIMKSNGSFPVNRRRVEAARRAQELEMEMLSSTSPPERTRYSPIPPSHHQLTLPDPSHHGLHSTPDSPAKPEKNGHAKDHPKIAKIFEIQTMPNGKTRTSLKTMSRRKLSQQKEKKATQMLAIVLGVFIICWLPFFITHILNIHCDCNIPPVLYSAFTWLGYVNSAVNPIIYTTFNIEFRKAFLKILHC
For orientation: Calcium assays in cells follow changes in intracellular calcium, usually with a dye or a luminescent sensor.
What is called inhibition is the drop in the measured response relative to a control, in per cent. For `O=C(CSc1n[nH]c(-c2ccccc2Cl)n1)NCc1ccc(F)cc1`, the inhibition is -17.6%.

In the case of `O=C(CCC(=O)c1ccc(F)cc1)Nc1ccc(Cl)cc1`, the inhibition was -3.31%.

In the case of `O=C(c1ccc2c(c1)N(Cc1ccccc1F)C(=O)c1ccccc1S2(=O)=O)N1CCN(c2ccccn2)CC1`, the inhibition amounted to 3.17%.

`CCn1cc(S(=O)(=O)c2cccc(C)c2)c(=O)c2cc(F)c(N3CCCC(C)C3)cc21` (stereo not given): the inhibition was found to be 1.43%.

For `CCOc1ccc(CNC(=O)C2CCCCN2S(=O)(=O)c2ccc(F)cc2)cc1OC` (stereo not given), the inhibition is -5.92%.

`CC(C)c1ccc(NC(=O)c2cc(S(=O)(=O)N(C)C3CCCCC3)ccc2F)cc1`: the inhibition is -6.38%.

On to `CCCCn1cnc2cc(NCc3ccc(OCC)cc3)ccc21`, for which the inhibition is -7.35%.

In the case of `O=C(N/N=C/C=C/c1ccccc1[N+](=O)[O-])c1cccs1`, the inhibition is active: 39.2%.

As to `CCOc1ccc(NC(=O)c2cc(S(=O)(=O)N3CCc4ccccc43)ccc2F)cc1`, the inhibition was -7.59%.

Turning to `CCN(C(=O)Cn1c(=O)n(-c2ccccc2)c(=O)c2ccc(C(=O)NCc3ccc4c(c3)OCO4)cc21)c1cccc(C)c1`, the inhibition was determined as 13%.

Consider `Cc1c(Cl)cccc1NS(=O)(=O)c1ccc(-c2cnc(C3CC3)o2)cc1`, for which the inhibition was -5.12%.

Regarding `Cc1cc(C)cc(OCC(=O)Nc2c(C(=O)c3ccccc3)oc3ccccc23)c1`, the inhibition was 4.86%.

In the case of `CCC(=O)N1c2ccccc2CC1C(=O)NCc1cc(OC)ccc1OC` (stereo not given), the inhibition was 2.9%.

For `O=C(CCn1c(=O)c2cccn2c2cccnc21)Nc1ccccc1C(F)(F)F`, the inhibition stood at 2.93%.

In the case of `CCOc1ccc(NC(=O)CCN2CCN(c3ccccc3OC)CC2)cc1`, the inhibition was active: 61.5%.

With `Cc1cc(C)nc(-n2nc(C)c3c2N(Cc2ccccc2)C(=O)CC3c2ccc(Cl)cc2)n1` (stereo not given), the inhibition was -15.2%.

On to `Cc1ccc2c(=O)cc(C(=O)Nc3ccc(S(=O)(=O)Nc4onc(C)c4C)cc3)oc2c1C`, for which the inhibition was -4.27%.

Take `O=C(CSc1oc(-c2ccccc2)nc1S(=O)(=O)c1ccc(Cl)cc1)c1ccccc1`: the inhibition was -4.78%.

As for `O=C(CC1C(=O)N(c2ccc(F)cc2)C(=O)N1Cc1ccc2c(c1)OCO2)Nc1ccc(Cl)cc1` (stereo not given), the inhibition was -17.5%.

Turning to `Cc1ccc(-n2cc(C(=O)Oc3ccc(F)cc3)c3ccccc3c2=O)cc1`, the inhibition is 16.5%.

For `Cc1ccc(NC(=O)CN(C)S(=O)(=O)c2cnc[nH]2)cc1`, the inhibition turned out to be 5.59%.

Regarding `Cc1ccc(NC(=O)Cn2c(=O)n(CCCCC(=O)NCc3ccccc3Cl)c(=O)c3ccccc32)cc1`, the inhibition was 1.1%.

For `O=C(CCCN1CCC(C(=O)c2ccc(F)cc2)CC1)c1ccc(F)cc1`, the inhibition is active: 71.5%.

As to `Cc1ccc(C)c(CN2C(=O)c3ccccc3S(=O)c3ccc(C(=O)N4CCN(c5cccc(Cl)c5)CC4)cc32)c1` (stereo not given), the inhibition was 9.42%.

`COc1ccccc1OCC(=O)NCC(c1ccc(Cl)cc1)N1CCOCC1` (stereo not given): the inhibition was determined as 11%.

With `CCCc1nn2c(=O)cc(COc3ccc(/C=C(\C#N)C(=O)Nc4ccccc4)cc3)nc2s1`, the inhibition is -11.9%.

As to `COc1ccc(C(CC(=O)NCc2ccccc2Cl)N2Cc3ccccc3C2=O)cc1OC` (stereo not given), the inhibition was -18.5%.

For `CC(C)CC(=O)NC1(C(F)(F)F)C(=O)Nc2c1c(=O)[nH]c(=O)n2-c1ccccc1` (stereo not given), the inhibition is 4.18%.

Take `O=C(COC(=O)c1cccnc1)Nc1cccc2ccccc12`: the inhibition is active: 32.2%.

Consider `CCS(=O)(=O)N1CCC(N2CCN(c3ccccc3)CC2)CC1`, for which the inhibition is active: 73.1%.

Take `Cc1ccc(-n2c(=O)c3cccnc3n2CC(=O)Nc2cc(Cl)ccc2C)cc1`: the inhibition came to 17.5%.

As for `O=c1cc(-c2ccccc2)n2c(SCc3c(F)cccc3Cl)nnc2[nH]1`, the inhibition is -4.28%.

`COc1ccc(Nc2oc(/C=C/c3cccc(OC)c3)nc2C#N)cc1`: the inhibition stood at 18.8%.

In the case of `CCCn1c(=NC(=O)c2cc3ccccc3o2)c(C(=O)OCC)cc2c(=O)n3ccccc3nc21`, the inhibition was 0.37%.

As for `COc1ccc(N(C(=O)/C=C\C(=O)Nc2ccc(C)cc2)C(C(=O)NCc2ccco2)c2ccc(C)cc2)cc1` (stereo not given), the inhibition is 19.1%.

For `CCCCN(CC)CCNC(=O)C1CCCN(S(=O)(=O)c2cccc3nsnc23)C1` (stereo not given), the inhibition amounted to 19.3%.

With `CN1Cc2cccc3c2C(Cc2ccccc2S3)C1` (stereo not given), the inhibition is active: 47.6%.

As for `O=C(Cn1ncc2ccsc2c1=O)N1CCN(c2ccccc2F)CC1`, the inhibition was found to be 10.5%.

As to `O=S(=O)(c1ccc(-n2cnnn2)cc1)N1CCN(c2cccc(Cl)c2)CC1`, the inhibition is -10.7%.

`Cc1c(C(=O)N2CCCCCC2)c(S(=O)(=O)N(Cc2ccccc2)C(C)(C)C)c(C)n1C`: the inhibition was determined as 10%.

With `CCc1cccc(C)c1NC(=O)CN1CCCN(Cc2ccccc2Cl)S1(=O)=O`, the inhibition came to 3.21%.

As for `COc1cc(C(=O)NC(c2ccc(Cl)cc2)c2cc(Cl)c3cccnc3c2O)cc(OC)c1OC` (stereo not given), the inhibition amounted to 0.898%.

`CN(CCCNC(=O)c1cccn2c(=O)c3ccccc3nc12)Cc1ccccc1`: the inhibition was active: 31%.

As for `CCOc1ccccc1NC(=O)C(CC)n1c(C(=O)OC)cc2occc21` (stereo not given), the inhibition turned out to be 1.47%.

Turning to `COc1cc(C2c3c(-c4ccccc4O)n[nH]c3C(=O)N2Cc2ccco2)ccc1OCC(C)C` (stereo not given), the inhibition is -3.83%.

On to `Cc1ccc(-n2nc3c(N4CCC(C(=O)NCc5ccccc5Cl)CC4)nnc(C)c3c2C)cc1`, for which the inhibition is -5.14%.

As to `COc1ccc2ccccc2c1/C=N\NC(=O)c1ccc(C)s1`, the inhibition was active: 40.2%.

For the compound `CC(=O)c1ccc(NC(=O)CCOc2ccccc2)cc1`, the inhibition was -8.88%.

Consider `CCOC(=O)c1c(C)[nH]c(C)c1S(=O)(=O)NCC(=O)N1CCN(c2ccccc2OC)CC1`, for which the inhibition was 4.78%.

For the compound `COc1ccc(OC)c(S(=O)(=O)NCCc2csc(-c3cccc(F)c3)n2)c1`, the inhibition is -0.264%.

Consider `CCN(CC)C(=O)Nc1ccc2c(c1)N(Cc1ccccc1)C(=O)c1ccccc1S2`, for which the inhibition was determined as 8.67%.

As to `O=C(CN1CCSc2ccccc21)N1CCN(c2ccc(F)cc2)CC1`, the inhibition came out at 5.99%.

In the case of `Cc1ccc(N(C)C(=O)c2cc(S(=O)(=O)N3CCOCC3)cn2C)cc1`, the inhibition was determined as 7.6%.

With `CCN(CCNc1ccc(Cl)cc1[N+](=O)[O-])C(=O)c1cc([N+](=O)[O-])c(N(C)C)cc1OC`, the inhibition was active: 34.4%.

In the case of `COc1ccc(CCNC(=O)CCCCn2c(=O)c3ccccc3n(Cc3ccccc3Cl)c2=O)cc1OC`, the inhibition was -14.5%.

As for `COc1ccccc1-c1noc(CCCC(=O)Nc2cc(C)ccc2C)n1`, the inhibition is 26%.

With `COc1ccc(C(=O)Nc2ccc(C(=O)OCc3cc(=O)n4nc(C5CC5)sc4n3)cc2)cc1`, the inhibition is -6.65%.

In the case of `CCCOc1ccc(OCCOCCN2CCc3ccccc3C2)cc1`, the inhibition is active: 31.4%.

Consider `COc1cc(F)c(S(=O)(=O)Nc2c(C)n(C)n(-c3ccccc3)c2=O)cc1OC`, for which the inhibition is 15.4%.

For the compound `COC(=O)c1ccc(CSc2nnc3ccc4ccccc4n23)cc1`, the inhibition is -14.2%.

Consider `COCCCN(C(=S)Nc1cccc(Cl)c1)C(C)c1ccncc1` (stereo not given), for which the inhibition was active: 30.3%.

For `COc1ccccc1Cn1cc(C(=O)c2ccc(C)cc2)c(=O)c2cc3c(cc21)OCCO3`, the inhibition worked out at 9.8%.

Take `CCn1cc2c(n1)-c1c(oc(C(=O)Nc3cccc(C(F)(F)F)c3)c1C)CC2`: the inhibition is -2.36%.

With `Cc1cc(=O)c2cc(C(=O)Nc3ccccc3C)ccc2[nH]1`, the inhibition amounted to 16.5%.

`CCOc1cc2sc(N3CCC(C(=O)Nc4cc(C)cc(C)c4)CC3)nc2cc1Br`: the inhibition amounted to 9.11%.

As for `CCOc1ccc(CNC(=O)CCCc2cn(C)c3ccccc23)cc1OC`, the inhibition came to 7.28%.

With `COC(=O)c1cc2sc(Cl)cc2n1Cc1cc(C)ccc1C`, the inhibition is -10.7%.

In the case of `Cc1ccc(-n2nc3c(=O)n(CC(=O)NCC(C)c4ccccc4)nc(C)c3c2C)cc1` (stereo not given), the inhibition was -10.9%.

With `COc1ccc(Cn2ccc3nc(C)c(C(=O)NCc4cccc(OC)c4)cc3c2=O)cc1`, the inhibition was -5.11%.

On to `CCc1ccccc1NC(=O)Cn1c2ncccc2c(=O)n1-c1ccccc1`, for which the inhibition was 2.54%.

Turning to `Nc1ccc(N2CCN(CCCCN3C(=O)C4CCCN4C3=O)CC2)cc1` (stereo not given), the inhibition is active: 42.4%.

In the case of `COc1ccc(OC)c(NC(=O)NCc2ccc(F)cc2)c1`, the inhibition is active: 38.9%.

Take `Cc1c(C)n(C)c2ccc(C(=O)NCc3cccc(F)c3)cc12`: the inhibition came to 19%.

On to `CCOC(=O)CSc1nnc2n(-c3ccccc3)c(=O)c3c4c(sc3n12)CC(C(C)(C)C)CC4` (stereo not given), for which the inhibition is -6.91%.

Turning to `COc1cc2c(cc1NC(=O)COc1ccc(Cl)cc1Br)oc1ccccc12`, the inhibition worked out at 9.01%.

`Cc1ccc(Nc2c(-c3ccsc3)nc3c(C)cccn23)cc1`: the inhibition was 16.6%.

`COc1ccccc1CNC(=O)Cn1ncn2c(cc3sccc32)c1=O`: the inhibition was -18.6%.

With `COc1ccc(S(=O)(=O)NCc2cccn2Cc2cccc(C)c2)cc1`, the inhibition was -1.23%.

`COc1ccccc1NC(=O)CC(c1cc(OC)c(OC)c(OC)c1)N1Cc2ccccc2C1=O` (stereo not given): the inhibition stood at 9.41%.

With `CCCCCSc1nc2sc3c(c2c(=O)n1-c1ccc(OC)cc1)CCN(C(C)=O)C3`, the inhibition came out at 9.49%.

Turning to `COc1ccc(S(=O)(=O)c2c(C(=O)c3ccc(C)c(C)c3)cnc3ccc(F)cc23)cc1`, the inhibition was 0.488%.

In the case of `COc1ccccc1C(=O)Nc1ccnn1C1CCN(Cc2cn(C)c3ccccc23)CC1`, the inhibition is active: 61.6%.

In the case of `CC(C)c1ccc(OCC(=O)Nc2c(C(=O)c3ccc(F)cc3)oc3ccccc23)cc1`, the inhibition is -3.94%.

With `O=S(=O)(Nc1cccc(C(F)(F)F)c1)c1ccc(-c2cnc(C3CC3)o2)cc1`, the inhibition is -7.65%.

For `CC(=O)N1CCc2cc(S(=O)(=O)NCCCN3CCN(Cc4ccccc4)CC3)ccc21`, the inhibition was active: 43.8%.

`Cc1ccc(-n2nnc(-c3nc(-c4cccs4)no3)c2N)c(C)c1`: the inhibition is -0.0295%.

`COC(=O)CSc1nc2sc3c(c2c(=O)n1-c1ccccc1C)CC(C)(C)OC3`: the inhibition was -14.4%.

As to `Clc1ccc(-c2nc3c4cnn(-c5ccccc5Br)c4ncn3n2)c(Cl)c1`, the inhibition was determined as 12%.

In the case of `Cc1ccc(OCC(=O)OC2=C(C(=O)c3ccccc3)N(C)S(=O)(=O)c3ccccc32)cc1`, the inhibition was 0.36%.

`CCc1ccc(NS(=O)(=O)c2cc(-c3cnc(C4CC4)o3)ccc2C)cc1`: the inhibition is 11%.

For `Cc1ccccc1NC(=O)c1sc2nc3n(c(=O)c2c1C)CCC3`, the inhibition amounted to 16.6%.

In the case of `Cc1oc(-c2ccc(C(=O)NCCC(C)C)cc2)nc1CN1CCc2ccccc21`, the inhibition was -7.95%.

Take `COc1ccccc1CNC(=O)CC(c1ccc(C)cc1)N1Cc2ccccc2C1=O` (stereo not given): the inhibition is 0.422%.

Consider `Cc1cc(C)cc(NC(=O)C2CCCN2S(=O)(=O)c2ccc3c(c2)CCCC(=O)N3)c1` (stereo not given), for which the inhibition is 5.03%.

For the compound `COc1ccc(CCNC(=O)CCS(=O)(=O)c2cc(Br)cc3c2N(C(C)=O)CC3)cc1OC`, the inhibition is -20.8%.
